The other results are listed elsewhere or left out.
Assays:
Assay in all cases: glycan array binding signal (z-score within array); higher = stronger binding
Conditions in all cases: glycan notation: IUPAC condensed, linker removed
[1] = target: GlcNAc(b1-3)Gal(b1-4)GlcNAc(b1-3)Gal(b1-4)GlcNAc(b1-3)Gal(b1-4)GlcNAc(b1-2)[GlcNAc(b1-3)Gal(b1-4)GlcNAc(b1-3)Gal(b1-4)GlcNAc(b1-3)Gal(b1-4)GlcNAc(b1-6)]Man(a1-6)[GlcNAc(b1-3)Gal(b1-4)GlcNAc(b1-3)Gal(b1-4)GlcNAc(b1-3)Gal(b1-4)GlcNAc(b1-2)Man(a1-3)]Man(b1-4)GlcNAc(b1-4)[Fuc(a1-6)]GlcNAc
In short: (§1)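 The binding signal is a Z-score computed within each array and averaged over linkers. Arrays of the same protein sequence at different concentrations or buffers were also averaged together. Data originate from 3228 arrays in the Consortium for Functional Glycomics database, kept only where the protein sequence was available.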

[2] = target: GlcNAc(b1-3)Gal(b1-4)GlcNAc(b1-3)Gal(b1-4)GlcNAc(b1-3)Gal(b1-4)GlcNAc(b1-3)Gal(b1-4)GlcNAc(b1-2)Man(a1-3)[GlcNAc(b1-3)Gal(b1-4)GlcNAc(b1-3)Gal(b1-4)GlcNAc(b1-3)Gal(b1-4)GlcNAc(b1-3)Gal(b1-4)GlcNAc(b1-2)Man(a1-6)]Man(b1-4)GlcNAc(b1-4)GlcNAc
In short: as §1

[3] = target: GlcNAc(b1-3)Gal(b1-4)GlcNAc(b1-3)Gal(b1-4)GlcNAc(b1-3)Gal(b1-4)GlcNAc(b1-3)Gal(b1-4)GlcNAc(b1-2)Man(a1-3)[GlcNAc(b1-3)Gal(b1-4)GlcNAc(b1-3)Gal(b1-4)GlcNAc(b1-3)Gal(b1-4)GlcNAc(b1-3)Gal(b1-4)GlcNAc(b1-2)Man(a1-6)]Man(b1-4)GlcNAc(b1-4)[Fuc(a1-6)]GlcNAc
In short: as §1

[4] = target: GlcNAc(b1-3)Gal(b1-4)GlcNAc(b1-3)Gal(b1-4)GlcNAc(b1-3)Gal(b1-4)GlcNAc(b1-3)Gal(b1-4)GlcNAc(b1-2)[GlcNAc(b1-3)Gal(b1-4)GlcNAc(b1-3)Gal(b1-4)GlcNAc(b1-3)Gal(b1-4)GlcNAc(b1-3)Gal(b1-4)GlcNAc(b1-6)]Man(a1-6)[GlcNAc(b1-3)Gal(b1-4)GlcNAc(b1-3)Gal(b1-4)GlcNAc(b1-3)Gal(b1-4)GlcNAc(b1-3)Gal(b1-4)GlcNAc(b1-2)Man(a1-3)]Man(b1-4)GlcNAc(b1-4)[Fuc(a1-6)]GlcNAc
In short: as §1

[5] = target: GlcNAc(b1-3)Gal(b1-4)GlcNAc(b1-3)Gal(b1-4)GlcNAc(b1-3)GalNAc
In short: as §1

[6] = target: GlcNAc(b1-3)Gal(b1-4)GlcNAc(b1-3)GalNAc
In short: as §1

[7] = target: GlcNAc(b1-3)Gal(b1-4)GlcNAc(b1-3)[GlcNAc(b1-3)Gal(b1-4)GlcNAc(b1-3)]GalNAc
In short: as §1

[8] = target: GlcNAc(b1-3)Gal(b1-4)GlcNAc(b1-6)[Gal(b1-3)]GalNAc
In short: as §1

[9] = target: GlcNAc(b1-3)Gal(b1-4)GlcNAc(b1-6)[GlcNAc(b1-3)Gal(b1-3)]GalNAc
In short: as §1

[10] = target: GlcNAc(b1-3)Gal(b1-4)GlcNAc(b1-6)[GlcNAc(b1-3)]Gal(b1-4)GlcNAc
In short: as §1

[11] = target: GlcNAc(b1-3)GalNAc
In short: as §1

[12] = target: GlcNAc(b1-3)Man
In short: as §1

[13] = target: GlcNAc(b1-3)[GlcNAc(b1-4)][GlcNAc(b1-6)]GlcNAc
In short: as §1

[14] = target: GlcNAc(b1-3)[GlcNAc(b1-6)]Gal(b1-4)GlcNAc
In short: as §1

[15] = target: GlcNAc(b1-3)[GlcNAc(b1-6)]GalNAc
In short: as §1

[16] = target: GlcNAc(b1-3)[GlcNAc(b1-6)]GlcNAc
In short: as §1

[17] = target: GlcNAc(b1-4)Gal(b1-4)GlcNAc
In short: as §1

[18] = target: GlcNAc(b1-4)GlcNAc
In short: as §1

[19] = target: GlcNAc(b1-4)GlcNAc(b1-4)GlcNAc
In short: as §1

[20] = target: GlcNAc(b1-4)GlcNAc(b1-4)GlcNAc(b1-4)GlcNAc(b1-4)GlcNAc
In short: as §1

[21] = target: GlcNAc(b1-4)GlcNAc(b1-4)GlcNAc(b1-4)GlcNAc(b1-4)GlcNAc(b1-4)GlcNAc
In short: as §1

[22] = target: GlcNAc(b1-4)[GlcNAc(b1-6)]GalNAc
In short: as §1

[23] = target: GlcNAc(b1-6)Gal(b1-4)GlcNAc
In short: as §1

B1: Gal 7 (Homo sapiens) (protein)
chain: MSNVPHKSSLPEGIRPGTVLRIRGLVPPNASRFHVNLLCGEEGGSDAALHFNPRLDTSEVVFNSKEGGSWGREERGPGVPFGRGQPFEVLIIASDDGFKAVVGDAQYHHFRHRLPLARVRLVEVGGDVQLDSVRIF
B1 was tested, and the “glycan array binding signal (z-score)” value [1] was 5.04, the “glycan array binding signal (z-score)” value [2] was 4.83 and the “glycan array binding signal (z-score)” value [3] was 4.94. For the same binder, the “glycan array binding signal (z-score)” value [4] was 5.06, the “glycan array binding signal (z-score)” value [5] was 0.55 and the “glycan array binding signal (z-score)” value [6] was -0.125. The “glycan array binding signal (z-score)” value [7] was 0.244, the “glycan array binding signal (z-score)” value [8] was -0.272 and the “glycan array binding signal (z-score)” value [9] was -0.267. For the same binder, the “glycan array binding signal (z-score)” value [10] was -0.293, the “glycan array binding signal (z-score)” value [11] was -0.32 and the “glycan array binding signal (z-score)” value [12] was -0.235. For the same binder, the “glycan array binding signal (z-score)” value [13] was -0.029, the “glycan array binding signal (z-score)” value [14] was -0.333 and the “glycan array binding signal (z-score)” value [15] was -0.322. The “glycan array binding signal (z-score)” value [16] was -0.33, the “glycan array binding signal (z-score)” value [17] was -0.348 and the “glycan array binding signal (z-score)” value [18] was -0.278. For the same binder, the “glycan array binding signal (z-score)” value [19] was -0.259, the “glycan array binding signal (z-score)” value [20] was -0.31 and the “glycan array binding signal (z-score)” value [21] was -0.317. The “glycan array binding signal (z-score)” value [22] was -0.355 and the “glycan array binding signal (z-score)” value [23] was -0.34.

From the supplement of paper PMC8728848
